The values that follow come from the RNAGym collection of RNA variant scans (doi:10.1093/nar/gkz1192).

The source gives no read counts; variants with many changes may rest on few reads.

First the molecules themselves.
B1: CPEB3 Ribozyme (parent)
chain: UAACAGGGGGCCACAGCAGAAGCGUUCACGUCGCAGCCCCUGUCAGAUUCUGGUGAAUCUGCGAAUUCUGCUGUAUAUCUC

In the series the parent is B1. Nature of the series: self-cleavage, relative activity (ratio to wild type); higher = more cleavage; in vitro, sequencing. In short, it runs like this:
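Libraries of CPEB3 self-cleaving ribozyme mutants came from rounds of error-prone PCR and carried barcodes, which DNA sequencing matched to variants. In vitro transcription used T7 RNA polymerase at 37°C for 5 hours, with a further 15 min in DNase I before EDTA stopped the reaction; the ribozymes cleaved during both steps. The RNA was reverse transcribed with template switching and sequenced on Illumina. Relative activity is the cleaved/total read fraction of a variant divided by that of the unmutated ribozyme, averaged over three batches with at least 5 reads.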
Consider UAACAGGGGGCCACGGCAGAAGCGUGCACGUCGCAGCCCCUGUCAGAUUCUGGAGAAUCUGCGAAUUCUGCUGUAUAUCUC [A15G U26G U54A], for which the self-cleavage came out at 0.49.
For UAACAGGGGGCCACGGCAGAAGCGUCCACGUCGCAGCCCCUGUCAGAAACUGGUGAAUCUGCGAACUCUGCUGUAUACCUC [A15G U26C U48A U49A U66C U78C], the self-cleavage is 0.06.
For the variant UAACAGGGGGCCACGGCAGAAGCGUCCACGUCGCAGCCCCUGUCAGAUUCUGGCGAAUCUGCGAAUUCCGCCGUACAUCUC [A15G U26C U54C U69C U72C U76C], the self-cleavage came to 0.08.
On to UAACAGGGGGCCACGGCAGAAGCGUCCACGUCGCAGCCCCUGUCAGAUUCUGGUGAACCUGCGAAUUCUGCUGUAUAUCUC [A15G U26C U58C], for which the self-cleavage came out at 0.18.
Take UAACAGGGGGCCACGGCAGAAGCGUGCACGCCACAGCCCCCGUCUGAUUCUGGUGAAUCUGCGAAUUCUGCUGUAUAUCUC [A15G U26G U31C G33A U41C A45U]: the self-cleavage stood at 0.09.
UAACAGGGGGCCACGGCAGAAGCGUUCACGCCGCAGCCCCUGUCAGAUUCUGGUGAAUCUGCCAAUUCUGCUGUAUAUCUC [A15G U31C G63C]: the self-cleavage was found to be 0.5.
For UAACAGGGGGCCACGGCAGAAGCGUUCACGACGCAGCCCCUGCCAGAUUCUGGUGAAUCUGCGGAUUCUGCUGUAUACCUC [A15G U31A U43C A64G U78C], the self-cleavage stood at 0.09.
As for UAACAGGGGGCCACGGCAGAAGCGUUCACGACGCAGCCCCUGACAGAUUCUGGUAAAUCUGCAAAUUCUGCUGUGUAUCUC [A15G U31A U43A G55A G63A A75G], the self-cleavage worked out at 0.3.
Next, UAACAGGGGGCCACGGCAGAAGCGUACACGUCGCAGCCCCUGUCAGAUUCCGGUGAAUCUGCGAAUUCUGCUGUAUAUCUC [A15G U26A U51C]: 0.87; UAACAGGGGGCCACGGCAGAAGCGUUCACGCCGCAGCCCCUGUCAGGUUCUGGCGAAUCUGCGAAAUCUGCUGUAUAUCUC [A15G U31C A47G U54C U66A]: 0.4; UAACAGGGGGCCACGGCAGAAGCGUCCACGUCGCAGCCCCUGUCUGAUUCUGGUGAAUCAGCGAAUCCUGCUGUAUAUCUC [A15G U26C A45U U60A U67C]: 0.06.
For the variant UAACAGGGGGCCACGGCAGAAGCGUCCACGUCGCAGCCCCUGUCAGAUUCUGGUGAAUCUGCGAGUCCUACUGUAUAUCUC [A15G U26C A65G U67C G70A], the self-cleavage amounted to 0.09.
Next, UAACAGGGGGCCACGGCAGAAGCGUUCACGCCGCAGCACCUGUGAGAUUAUGGUGAAUCGGCGAAUUCUGCUGUAUAUCUC [A15G U31C C38A C44G C50A U60G]: 0.07.
UAACAGGGGGCCACGGCAGAAGCGUCCACGUCGCAGCCCCUGUCAGAUUCUGGUGAAUCUGCGAAUUCUGCUGUACAUCUC [A15G U26C U76C]: the self-cleavage was determined as 0.31.
For UAACAGGGGGCCACGGCAGAAGCGUCCGCGUCGCAGCCCCUGUCAGAUUCUGGUGAAACUGCGAAUUCUGCUGAUCAUCUC [A15G U26C A28G U58A U74A A75U U76C], the self-cleavage turned out to be 0.07.
For the variant UAACAGGGGGCCACGGCAGAAGCGUUCACGCCGUAGCCCCUGUCAGAUUCUGGUGAAUCUGCGAAUUCUGCUGUAUAUCCC [A15G U31C C34U U80C], the self-cleavage is 0.63.
UAACAGGGGGCCACGGCAGAAGCGUUCACGUCGCAGCCCCAGUCAGAUUCUGGUGAAUCUGCGGAUUCUGCUGUAUAUCUC [A15G U41A A64G]: the self-cleavage amounted to 0.21.
Turning to UAACAGGGGGCCACGGCAGAAGCGUCCACGUCGCUGCCCCUGCCAGAUUCUGGUGAAUCUGCGAAUUCUGCUGUAUAUCUC [A15G U26C A35U U43C], the self-cleavage turned out to be 0.25.
As to UAACAGGGGGCCACGGCAGAAGCGUCCACGUCGCAGCACCUGUCAGAUUCUGGUGAAUCUGCGAAUUCUGCUGAAUAUCUC [A15G U26C C38A U74A], the self-cleavage stood at 0.36.
Turning to UAACAGGGGGCCACGGCAGAAGCGUUCACGCCGCAGCCCCUGUCAGACUCUGGUGAAUCUGCGAAUUCUGCUGUAUACCUC [A15G U31C U48C U78C], the self-cleavage was determined as 0.15.
To UAACAGGGGGCCACGGCAGAAGCGUCCACGUCGCAGCCCCUGUCAGAUUCUGGUGUAUCUGCGAAUUCUGCUGUAUAUCUC [A15G U26C A56U] belongs 0.22.
Regarding UAACAGGGGGCCACGGCAGAAGCGUCCACGUCGCAGCCCCUGUCUGACUCUGGUGAAUCUGCGAAUUCUGCCGUAUAUCUC [A15G U26C A45U U48C U72C], the self-cleavage is 0.2.
Next, UAACAGGGGGCCACGGCAGAAGCGUUCACGACGCAGCCCCUGUCAGAUUCUGGUGAAUCUGCGAAUUCUGCCGUAUAUCUC [A15G U31A U72C]: 0.87; UAACAGGGGGCCACGGCAGAAGCGUUCACGUCGCAGCCCCAGUCAGAUUCUGGUGGAUCUGCGAAUUCUGCUGUAUAUCUC [A15G U41A A56G]: 0.25.
Regarding UAACAGGGGGCCACGGCAGAAGCGUUCACGCCGCAGCCCCUGCCAGAUUCUGGUGAGUCUGCGAAUUCUGCUGUAUAUCUC [A15G U31C U43C A57G], the self-cleavage worked out at 0.06.
For the variant UAACAGGGGGCCACGGCAGAAGCGUCCACGCCGCAGCCCCUGUCAGAUACUGGUGAAUCUGCGAAAUCUGCCGUAAAUCUC [A15G U26C U31C U49A U66A U72C U76A], the self-cleavage is 0.17.
Turning to UAACAGGGGGCCACGGCAGAAGCGUCCACGACGCAGCCCCUGUCAGAUUCUAGUGAACCUGCGAAUUCUGCUGUAUAUCUC [A15G U26C U31A G52A U58C], the self-cleavage turned out to be 0.07.
To UAACAGGGGGCCACGGCAGAAGCGUUCACGUCGCAGCCCCAGUCAGGUUCUGGUGAAUCUGCGAAUUCUGCCGUAUAUCUC [A15G U41A A47G U72C] belongs 0.42; to UAACAGGGGGCCACGGCAGAAGCGUUCACGACGCAGCCCCCGUCGGACUCUGGUGAAUCUGCGUAUUCUGCAGUAUAUCUC [A15G U31A U41C A45G U48C A64U U72A], 0.11.
Next, UAACAGGGGGCCACGGCAGAAGCGUUCACGUCGCAGCCCCAGUCAGAUUCUGGUGGGUCUGCGAAUUCUGCUGUAUAUCUC [A15G U41A A56G A57G]: 0.14; UAACAGGGGGCCACGGCAGAAGCGUCCACGUCGCAGCCCCUGUCAGAUUCUGGUGAAUCUGCGAAUUCUGCUGUUUAUCUC [A15G U26C A75U]: 0.56; UAACAGGGGGCCACGGCAGAAGCGUUCACGACGCAGCCCCUGCCAGAUUCUGGUGAAUCUGCGAAUUCUGCAGUUUAUCUC [A15G U31A U43C U72A A75U]: 0.25.
UAACAGGGGGCCACGGCAGAAGCGUCCACGUCGCAGCCCCUGUCAGAUUCUGGUGAAUCUGCGAAUUCUGCUGAAUAUCUC [A15G U26C U74A]: the self-cleavage amounted to 0.51.
Next, UAACAGGGGGCCACGGCAGAAGCGUUCACGCCGCAGCCCCUGUCAGAUUCUGGUGAAUCUGCGAAUUCUGCUGUACAUCUC [A15G U31C U76C]: 0.31.
